This note sets out measurements from paper PMC7819943, “Rice protein-binding microarrays: a tool to detect cis-acting elements near promoter regions in rice”.

The other results are listed elsewhere or left out.

The target of this assay is T1, OsWOX13 (Oryza sativa, UniProt Q5QMM3 1-267).
T1 sequence: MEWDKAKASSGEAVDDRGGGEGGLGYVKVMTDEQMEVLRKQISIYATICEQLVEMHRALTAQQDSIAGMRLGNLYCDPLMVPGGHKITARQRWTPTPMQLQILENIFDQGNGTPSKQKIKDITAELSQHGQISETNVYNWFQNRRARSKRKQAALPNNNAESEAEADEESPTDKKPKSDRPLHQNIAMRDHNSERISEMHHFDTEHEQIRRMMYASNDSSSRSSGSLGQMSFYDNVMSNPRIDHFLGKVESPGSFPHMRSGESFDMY
The assay can be described thus: protein-binding microarray (RPBM); PBS, 2% BSA, 51.3 ng/ul salmon testes DNA, 50 uM zinc acetate, 200 nM TF, 25 C, 1 h; high values mean tight binding. The conditions noted are these: protein: recombinant; tags: N-terminal polyhistidine and DsRed monomer fusion (pET32a); label: CyDye5-dUTP incorporated in the synthesized complementary strand; 3' TTTTT single-stranded linker to array surface; dsDNA, one strand shown. The method, boiled down: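 Transcription factors, each fused N-terminally to a polyhistidine tag and DsRed, were expressed in E. coli BL21-CodonPlus and purified on Ni–NTA. A custom Agilent array was made double-stranded by primer extension with Cy5-dUTP and blocked with 2% BSA. It was incubated with 200 nM protein in PBS, 2% BSA, salmon testes DNA and 50 µM zinc acetate at 25 °C for 1 h, then washed. The binding signal is per-feature fluorescence intensity (arbitrary units) read on an Axon 4000B scanner.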
Turning to “CATAAATAATCATACCAAACAACACAAGACATAAAGGAAGCGGAGTCACCTAGTGCAG”, the binding signal is 4060 fluorescence intensity (a.u.).

Regarding “CAATTAATTGCTTATCCGTGGCCTTGATCAATTACTGTGCCGGAGTCACCTAGTGCAG”, the binding signal was 56600 fluorescence intensity (a.u.).

As to “AATTTAAAATTTCTCAAATTGATCATTATATAACCGCATGCGGAGTCACCTAGTGCAG”, the binding signal is 8700 fluorescence intensity (a.u.).

Take “GCAATGATTTCCCAAGCTTAAACCCCTATGCTTCCTCGGTCGGAGTCACCTAGTGCAG”: the binding signal is 5930 fluorescence intensity (a.u.).

With “CGATCATGATTAGCAACGCAATTAAATTCCCCAATCACCCCGGAGTCACCTAGTGCAG”, the binding signal is 39400 fluorescence intensity (a.u.).

For “TTAGTACTATTAATTTGGTGGGGTTGGGTGGGTGCTGTAACGGAGTCACCTAGTGCAG”, the binding signal was 5840 fluorescence intensity (a.u.).

For the sequence “CCAAATTTGATATGTTTGCAGCTGCACGCTGCTATCACACCGGAGTCACCTAGTGCAG”, the binding signal is 16800 fluorescence intensity (a.u.).

Turning to “ACTTTTCTATTTAATTTTATCTATTTTCTTAATAACTATGCGGAGTCACCTAGTGCAG”, the binding signal was 4340 fluorescence intensity (a.u.).

“ATATAATTAAATGATTAATTAATTAGTACCGTTTTACTTGCGGAGTCACCTAGTGCAG”: the binding signal is 65500 fluorescence intensity (a.u.).

Regarding “ATGGCTGAGTTGATTGGTCTTTCATTTGCTAAAGGTATGACGGAGTCACCTAGTGCAG”, the binding signal is 16900 fluorescence intensity (a.u.).

Turning to “GGGATTAATTAAATATGGTATGTTATAAAGATAACTAATACGGAGTCACCTAGTGCAG”, the binding signal was 10300 fluorescence intensity (a.u.).

On to “AGTCCAATTGAATAAATAAATAATGAAATAAATGTAGAGGCGGAGTCACCTAGTGCAG”, for which the binding signal was 6420 fluorescence intensity (a.u.).

As to “CAGTGTTCTATCAGTACATGATTTGGCAATAAACTTGGCTCGGAGTCACCTAGTGCAG”, the binding signal is 4690 fluorescence intensity (a.u.).

As for “AAAATTTATTTATACATTAATGGTTTAGAAAACTTATTGTCGGAGTCACCTAGTGCAG”, the binding signal is 4820 fluorescence intensity (a.u.).

On to “AGTTATTGGTGGTACAATGATTTACAATGGTATCTATGTGCGGAGTCACCTAGTGCAG”, for which the binding signal is 3200 fluorescence intensity (a.u.).

Consider “GCTACATAATTATTCTGACTATTCGATCAGAATGATACGTCGGAGTCACCTAGTGCAG”, for which the binding signal is 14900 fluorescence intensity (a.u.).

On to “TCTTTATCAATCTCAAGATATACTAGTCAGTCTTTCGGATCGGAGTCACCTAGTGCAG”, for which the binding signal is 3630 fluorescence intensity (a.u.).

Consider “GTTCGATTGAGATAGCTCTTAACATCAGTGACTTCTAGCCCGGAGTCACCTAGTGCAG”, for which the binding signal was 3800 fluorescence intensity (a.u.).

For the sequence “CTCAAATAATCATGTCAGCTGGATTAATTGGAGTACTTTTCGGAGTCACCTAGTGCAG”, the binding signal was 24700 fluorescence intensity (a.u.).

With “CAAGCTGATTGATCCAAAGCTACAAGAACAATCAGCTTAGCGGAGTCACCTAGTGCAG”, the binding signal was 44700 fluorescence intensity (a.u.).

Turning to “ATGATTACTCTCATTATTAATATTATATATTATACGTGAACGGAGTCACCTAGTGCAG”, the binding signal is 18800 fluorescence intensity (a.u.).

Regarding “ATATATAATTCATTAAAATAAATTAACGATATAACACATACGGAGTCACCTAGTGCAG”, the binding signal is 4960 fluorescence intensity (a.u.).

On to “AGATGATTTGTAGCCGGTAGTTGGCTATACTATTAAACTTCGGAGTCACCTAGTGCAG”, for which the binding signal was 22400 fluorescence intensity (a.u.).

Take “TTAATTAGACTTAATAAATTTATCTCGTAATTTGTAAGCGCGGAGTCACCTAGTGCAG”: the binding signal was 50900 fluorescence intensity (a.u.).

With “AGGGTAATTACACATTTAACCCTATTTTAAGGTCTAACTACGGAGTCACCTAGTGCAG”, the binding signal was 18400 fluorescence intensity (a.u.).

“GTTGGATTGGCACCTTCTACCGACCGTGCACGTTCATCATCGGAGTCACCTAGTGCAG”: the binding signal is 10600 fluorescence intensity (a.u.).

“CCCTGGAGATTAGATTGATTTCAAAGGATTACCAAGATTTCGGAGTCACCTAGTGCAG”: the binding signal is 29400 fluorescence intensity (a.u.).

For “TATAATAATTATTTAATTAATTATGTGCTAATATATCACTCGGAGTCACCTAGTGCAG”, the binding signal was 39500 fluorescence intensity (a.u.).

With “TAAAATTAATAATGAAAATGTTTTAGCTCTTACATGAGAGCGGAGTCACCTAGTGCAG”, the binding signal was 11900 fluorescence intensity (a.u.).

Regarding “CTTTGACAGATTGGTGGGAGATAAGAGAAATGAGGAGGTGCGGAGTCACCTAGTGCAG”, the binding signal is 51900 fluorescence intensity (a.u.).

“GACTTGATGGGTATCGTAGTAGCGGAAGCTTGTGGAGTTGCGGAGTCACCTAGTGCAG”: the binding signal is 5560 fluorescence intensity (a.u.).

Take “TACCATGATTGGGCTGCAACTAAATTGACAGGTCAGCCATCGGAGTCACCTAGTGCAG”: the binding signal is 60400 fluorescence intensity (a.u.).

Turning to “GCTGCTGAGTTAATTTTCTGCATAACTGTCAGATTGTATTCGGAGTCACCTAGTGCAG”, the binding signal is 4510 fluorescence intensity (a.u.).

In the case of “TACAAATTTGCCACTGGGTTAAATCTATATATTGTAGGATCGGAGTCACCTAGTGCAG”, the binding signal is 4380 fluorescence intensity (a.u.).

As to “AAAATATAATGAATTTGACGTTAAGATTTTAACCCTAAGTCGGAGTCACCTAGTGCAG”, the binding signal is 4200 fluorescence intensity (a.u.).

Turning to “TCTATCTCCATTACTCAACCAATCACAACTCTTCACCATTCGGAGTCACCTAGTGCAG”, the binding signal was 6170 fluorescence intensity (a.u.).

As for “CCGCAAATTAAATCACCACAACTCCTGCCCTCAAAATAATCGGAGTCACCTAGTGCAG”, the binding signal is 9540 fluorescence intensity (a.u.).

Consider “CAAACTAATAGACTGTAATACCCGGTGTTCTTGAGCATGGCGGAGTCACCTAGTGCAG”, for which the binding signal is 29400 fluorescence intensity (a.u.).

“AATTGCGTGATTGTGCTAATCAAAATGCAGAATTGGATATCGGAGTCACCTAGTGCAG”: the binding signal was 23000 fluorescence intensity (a.u.).

For the sequence “TTGCATCAATCAGTCAATCGAGAACGGATCGGCACTCTGACGGAGTCACCTAGTGCAG”, the binding signal was 35900 fluorescence intensity (a.u.).

As to “AAATTGATAAGATATATTAGTAACTAATATATCACTCCATCGGAGTCACCTAGTGCAG”, the binding signal was 7530 fluorescence intensity (a.u.).

In the case of “AGATGACAGGAACATAGCCATGCGCATCTCTTTCAGGAGCCGGAGTCACCTAGTGCAG”, the binding signal is 5080 fluorescence intensity (a.u.).
